# Results reported in the supplement of paper PMC8728848.
# The other results are listed elsewhere or left out.
# How the values were obtained:
# Assay in all cases: glycan array binding signal (z-score within array); higher = stronger binding
# Details in all cases: glycan notation: IUPAC condensed, linker removed
# [1] = target: Man(a1-2)Man(a1-3)[Man(a1-2)Man(a1-6)]Man
# Method in brief: (§1)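 The binding signal is a Z-score computed within each array. Data were drawn from 3228 arrays in the Consortium for Functional Glycomics database, restricted to those with a known protein sequence. Scores were averaged over arrays of the same protein sequence at different concentrations or buffers, and over linkers, and negative values can be taken as non-binding.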
# [2] = target: Man(a1-2)Man(a1-3)[Man(a1-2)Man(a1-6)]Man(a1-6)[Man(a1-2)Man(a1-2)Man(a1-3)]Man
# Method in brief: as §1
# [3] = target: Man(a1-2)Man(a1-3)[Man(a1-2)Man(a1-6)]Man(a1-6)[Man(a1-2)Man(a1-2)Man(a1-3)]Man(b1-4)GlcNAc(b1-4)GlcNAc
# Method in brief: as §1
# [4] = target: Man(a1-2)Man(a1-3)[Man(a1-6)]Man(a1-6)[Man(a1-2)Man(a1-3)]Man(b1-4)GlcNAc(b1-4)GlcNAc
# Method in brief: as §1
# [5] = target: Man(a1-2)Man(a1-6)[Man(a1-3)]Man(a1-6)[Man(a1-2)Man(a1-2)Man(a1-3)]Man
# Method in brief: as §1
# [6] = target: Man(a1-2)Man(a1-6)[Man(a1-3)]Man(a1-6)[Man(a1-2)Man(a1-2)Man(a1-3)]Man(b1-4)GlcNAc(b1-4)GlcNAc
# Method in brief: as §1
# [7] = target: Man(a1-3)[Man(a1-6)]Man
# Method in brief: as §1
# [8] = target: Man(a1-3)[Man(a1-6)]Man(a1-6)[Man(a1-2)Man(a1-3)]Man(b1-4)GlcNAc(b1-4)GlcNAc
# Method in brief: as §1
# [9] = target: Man(a1-3)[Man(a1-6)]Man(a1-6)[Man(a1-3)]Man
# Method in brief: as §1
# [10] = target: Man(a1-3)[Man(a1-6)]Man(a1-6)[Man(a1-3)]Man(b1-4)GlcNAc(b1-4)GlcNAc
# Method in brief: as §1
# [11] = target: Man(a1-3)[Man(a1-6)]Man(b1-4)GlcNAc(b1-4)GlcNAc
# Method in brief: as §1
# [12] = target: Man(a1-6)Man
# Method in brief: as §1
# [13] = target: Man(b1-4)GlcNAc
# Method in brief: as §1
# [14] = target: Neu5Ac(a2-3)Gal
# Method in brief: as §1
# [15] = target: Neu5Ac(a2-3)Gal(b1-3)GalNAc
# Method in brief: as §1
# [16] = target: Neu5Ac(a2-3)Gal(b1-3)GalNAc(b1-3)Gal(a1-4)Gal(b1-4)Glc
# Method in brief: as §1
# [17] = target: Neu5Ac(a2-3)Gal(b1-3)GalNAc(b1-3)Gal(b1-4)GlcNAc
# Method in brief: as §1
# [18] = target: Neu5Ac(a2-3)Gal(b1-3)GalNAc(b1-4)[Neu5Ac(a2-3)]Gal(b1-4)Glc
# Method in brief: as §1
# [19] = target: Neu5Ac(a2-3)Gal(b1-3)GalNAc(b1-4)[Neu5Ac(a2-8)Neu5Ac(a2-3)]Gal(b1-4)Glc
# Method in brief: as §1
# [20] = target: Neu5Ac(a2-3)Gal(b1-3)GalNAc6S
# Method in brief: as §1
# [21] = target: Neu5Ac(a2-3)Gal(b1-3)GlcNAc
# Method in brief: as §1
# [22] = target: Neu5Ac(a2-3)Gal(b1-3)GlcNAc(b1-3)Gal(b1-3)GlcNAc
# Method in brief: as §1
# [23] = target: Neu5Ac(a2-3)Gal(b1-3)GlcNAc(b1-3)Gal(b1-4)GlcNAc
# Method in brief: as §1
# [24] = target: Neu5Ac(a2-3)Gal(b1-3)GlcNAc(b1-3)GalNAc
# Method in brief: as §1
# [25] = target: Neu5Ac(a2-3)Gal(b1-3)GlcNAc6S
# Method in brief: as §1
# [26] = target: Neu5Ac(a2-3)Gal(b1-3)[Fuc(a1-4)]GlcNAc
# Method in brief: as §1
# [27] = target: Neu5Ac(a2-3)Gal(b1-3)[Fuc(a1-4)]GlcNAc(b1-3)Gal(b1-3)[Fuc(a1-4)]GlcNAc
# Method in brief: as §1
# [28] = target: Neu5Ac(a2-3)Gal(b1-3)[Fuc(a1-4)]GlcNAc(b1-3)Gal(b1-4)[Fuc(a1-3)]GlcNAc
# Method in brief: as §1
# [29] = target: Neu5Ac(a2-3)Gal(b1-3)[Neu5Ac(a2-3)Gal(b1-4)]GlcNAc
# Method in brief: as §1
# [30] = target: Neu5Ac(a2-3)Gal(b1-3)[Neu5Ac(a2-6)]GalNAc
# Method in brief: as §1
# [31] = target: Neu5Ac(a2-3)Gal(b1-4)Glc
# Method in brief: as §1
# [32] = target: Neu5Ac(a2-3)Gal(b1-4)GlcNAc
# Method in brief: as §1
# [33] = target: Neu5Ac(a2-3)Gal(b1-4)GlcNAc(b1-2)Man(a1-3)[GlcNAc(b1-2)Man(b1-4)GlcNAc(b1-2)Man(a1-6)]Man(b1-4)GlcNAc(b1-4)GlcNAc
# Method in brief: as §1
# [34] = target: Neu5Ac(a2-3)Gal(b1-4)GlcNAc(b1-2)Man(a1-3)[Neu5Ac(a2-3)Gal(b1-4)GlcNAc(b1-2)Man(a1-6)]Man(b1-4)GlcNAc(b1-4)GlcNAc
# Method in brief: as §1
# [35] = target: Neu5Ac(a2-3)Gal(b1-4)GlcNAc(b1-2)Man(a1-3)[Neu5Ac(a2-6)Gal(b1-4)GlcNAc(b1-2)Man(a1-6)]Man(b1-4)GlcNAc(b1-4)GlcNAc
# Method in brief: as §1
# [36] = target: Neu5Ac(a2-3)Gal(b1-4)GlcNAc(b1-3)Gal
# Method in brief: as §1
# [37] = target: Neu5Ac(a2-3)Gal(b1-4)GlcNAc(b1-3)Gal(b1-3)GlcNAc
# Method in brief: as §1
# [38] = target: Neu5Ac(a2-3)Gal(b1-4)GlcNAc(b1-3)Gal(b1-4)GlcNAc
# Method in brief: as §1
# [39] = target: Neu5Ac(a2-3)Gal(b1-4)GlcNAc(b1-3)Gal(b1-4)GlcNAc(b1-3)Gal(b1-4)GlcNAc
# Method in brief: as §1
# [40] = target: Neu5Ac(a2-3)Gal(b1-4)GlcNAc(b1-3)Gal(b1-4)[Fuc(a1-3)]GlcNAc
# Method in brief: as §1
# [41] = target: Neu5Ac(a2-3)Gal(b1-4)GlcNAc(b1-3)GalNAc
# Method in brief: as §1
# [42] = target: Neu5Ac(a2-3)Gal(b1-4)GlcNAc(b1-6)[Gal(b1-3)]GalNAc
# Method in brief: as §1
# [43] = target: Neu5Ac(a2-3)Gal(b1-4)GlcNAc(b1-6)[Neu5Ac(a2-3)Gal(b1-3)]GalNAc
# Method in brief: as §1
# [44] = target: Neu5Ac(a2-3)Gal(b1-4)GlcNAc6S
# Method in brief: as §1
# [45] = target: Neu5Ac(a2-3)Gal(b1-4)[Fuc(a1-3)]GlcNAc
# Method in brief: as §1
# [46] = target: Neu5Ac(a2-3)Gal(b1-4)[Fuc(a1-3)]GlcNAc(b1-3)Gal
# Method in brief: as §1
# [47] = target: Neu5Ac(a2-3)Gal(b1-4)[Fuc(a1-3)]GlcNAc(b1-3)Gal(b1-4)GlcNAc
# Method in brief: as §1
# [48] = target: Neu5Ac(a2-3)Gal(b1-4)[Fuc(a1-3)]GlcNAc(b1-3)Gal(b1-4)[Fuc(a1-3)]GlcNAc(b1-3)Gal(b1-4)[Fuc(a1-3)]GlcNAc
# Method in brief: as §1
# [49] = target: Neu5Ac(a2-3)Gal(b1-4)[Fuc(a1-3)]GlcNAc(b1-3)GalNAc
# Method in brief: as §1
# [50] = target: Neu5Ac(a2-3)Gal(b1-4)[Fuc(a1-3)]GlcNAc(b1-6)[Gal(b1-3)]GalNAc
# Method in brief: as §1
# [51] = target: Neu5Ac(a2-3)Gal(b1-4)[Fuc(a1-3)]GlcNAc6S
# Method in brief: as §1
# [52] = target: Neu5Ac(a2-3)Gal6S(b1-4)GlcNAc
# Method in brief: as §1
# [53] = target: Neu5Ac(a2-3)Gal6S(b1-4)[Fuc(a1-3)]GlcNAc
# Method in brief: as §1
binder,measurement,setting,value
"FedF (Escherichia coli), Q47212 (protein) MRLKYILIIPLLLISLSVFASTLQVDKSVSYDWINSSASSAQVTGTLLGTGKTNTTQMPALYTWQHQIYNVNFIPSSSGTLTCQAGTILVWKNGRETQYALECRVSIHHSSGSINESQWGQQSQVGFGTACGNKKCRFTGFEISLRIPPNAQTYPLSSGDLKGSFSLTNKEVNWSASIYVPAIAKSYRLDTSITLPDTVNLKQNQATPVYYTFSAPSVSNTITGIPNQNDMPSSNVKLTIGPIQSKTTALYVQPDATGSWYDLSKSITMTVVKSSMLNFKGINAKPGNVTLSVPIVFEIQ",glycan array binding signal (z-score),[1],0.257
same,glycan array binding signal (z-score),[2],-0.119
same,glycan array binding signal (z-score),[3],-0.049
same,glycan array binding signal (z-score),[4],0.061
same,glycan array binding signal (z-score),[5],-0.186
same,glycan array binding signal (z-score),[6],0.086
same,glycan array binding signal (z-score),[7],0.375
same,glycan array binding signal (z-score),[8],0.04
same,glycan array binding signal (z-score),[9],-0.169
same,glycan array binding signal (z-score),[10],0.09
same,glycan array binding signal (z-score),[11],-0.077
same,glycan array binding signal (z-score),[12],-0.145
same,glycan array binding signal (z-score),[13],-0.436
same,glycan array binding signal (z-score),[14],-0.149
same,glycan array binding signal (z-score),[15],-0.17
same,glycan array binding signal (z-score),[16],-0.261
same,glycan array binding signal (z-score),[17],-0.225
same,glycan array binding signal (z-score),[18],-0.17
same,glycan array binding signal (z-score),[19],-0.176
same,glycan array binding signal (z-score),[20],0.178
same,glycan array binding signal (z-score),[21],-0.198
same,glycan array binding signal (z-score),[22],-0.192
same,glycan array binding signal (z-score),[23],0.115
same,glycan array binding signal (z-score),[24],0.236
same,glycan array binding signal (z-score),[25],-0.039
same,glycan array binding signal (z-score),[26],-0.424
same,glycan array binding signal (z-score),[27],-0.126
same,glycan array binding signal (z-score),[28],-0.014
same,glycan array binding signal (z-score),[29],-0.151
same,glycan array binding signal (z-score),[30],-0.219
same,glycan array binding signal (z-score),[31],-0.222
same,glycan array binding signal (z-score),[32],-0.127
same,glycan array binding signal (z-score),[33],-0.047
same,glycan array binding signal (z-score),[34],0.254
same,glycan array binding signal (z-score),[35],-0.172
same,glycan array binding signal (z-score),[36],-0.076
same,glycan array binding signal (z-score),[37],-0.179
same,glycan array binding signal (z-score),[38],-0.258
same,glycan array binding signal (z-score),[39],-0.027
same,glycan array binding signal (z-score),[40],-0.292
same,glycan array binding signal (z-score),[41],-0.048
same,glycan array binding signal (z-score),[42],0.025
same,glycan array binding signal (z-score),[43],-0.185
same,glycan array binding signal (z-score),[44],0.209
same,glycan array binding signal (z-score),[45],-0.164
same,glycan array binding signal (z-score),[46],-0.471
same,glycan array binding signal (z-score),[47],-0.016
same,glycan array binding signal (z-score),[48],-0.158
same,glycan array binding signal (z-score),[49],-0.084
same,glycan array binding signal (z-score),[50],0.222
same,glycan array binding signal (z-score),[51],0.245
same,glycan array binding signal (z-score),[52],0.108
same,glycan array binding signal (z-score),[53],-0.122
